# Test results published in the supplement of paper PMC4604168 (melanoma cell lines).
# This is one part of the list. Repeats are few or missing, and single values can be far off.
# Test system: MEL-HO
# Assay: cell count relative to DMSO control; melanoma cells; higher = more viable cells
# Settings: library dose: low library concentration; 72 h
# 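Note: cell number obtained by counting DAPI-stained nuclei in high-throughput microscope images with image analysis software, screen run in 1,536-well plates.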
row,SMILES,cell count
1,"C[C@]12O[C@H](C[C@]1(O)CO)n1c3ccccc3c3c4c(c5c6ccccc6n2c5c31)CNC4=O [Lestaurtinib] + CNC(=O)c1cc(Oc2ccc(NC(=O)Nc3ccc(Cl)c(C(F)(F)F)c3)cc2)ccn1 [sorafenib] (first compound 0.004 µM, partner dose 0.4 µM)",97.1%
2,"N.N.[Cl][Pt][Cl] [cisplatin] + CO[C@H]1C[C@@H]2CC[C@@H](C)[C@@](O)(O2)C(=O)C(=O)N2CCCC[C@H]2C(=O)O[C@H]([C@H](C)C[C@@H]2CC[C@@H](OCCO)[C@H](OC)C2)CC(=O)[C@H](C)/C=C(\C)[C@@H](O)[C@@H](OC)C(=O)[C@H](C)C[C@H](C)/C=C/C=C/C=C/1C [everolimus] (first compound 1.6 µM, partner dose 0.02 µM)",61.2%
3,"C[C@]12O[C@H](C[C@]1(O)CO)n1c3ccccc3c3c4c(c5c6ccccc6n2c5c31)CNC4=O [Lestaurtinib] + C=CCNC1=C2C[C@@H](C)C[C@H](OC)[C@H](O)[C@@H](C)/C=C(\C)[C@H](OC(N)=O)[C@@H](OC)/C=C\C=C(/C)C(=O)NC(=CC1=O)C2=O [Tanespimycin] (first compound 0.004 µM, partner dose 0.002 µM)",94.8%
4,"C[C@]12O[C@H](C[C@]1(O)CO)n1c3ccccc3c3c4c(c5c6ccccc6n2c5c31)CNC4=O [Lestaurtinib] + COc1ccc(Cl)c(Nc2nc3ccccc3nc2NS(=O)(=O)c2cccc(NC(=O)C(C)(C)N)c2)c1 [XL147] (first compound 0.004 µM, partner dose 0.8 µM)",81.4%
5,"C[C@]12O[C@H](C[C@]1(O)CO)n1c3ccccc3c3c4c(c5c6ccccc6n2c5c31)CNC4=O [Lestaurtinib] + CCN(CC)CCNC(=O)c1c(C)[nH]c(/C=C2\C(=O)Nc3ccc(F)cc32)c1C [sunitinib] (first compound 0.004 µM, partner dose 0.4 µM)",98.5%
6,"C[C@]12O[C@H](C[C@]1(O)CO)n1c3ccccc3c3c4c(c5c6ccccc6n2c5c31)CNC4=O [Lestaurtinib] + CS(=O)(=O)c1ccc(C(=O)Nc2ccc(Cl)c(-c3ccccn3)c2)c(Cl)c1 [vismodegib] (first compound 0.004 µM, partner dose 1 µM)",112%
7,"C[As](C)SC[C@H](NC(=O)CC[C@H](N)C(=O)O)C(=O)NCC(=O)O [Darinaparsin] + Cn1cc(/C=C2\C(=O)Nc3cccnc32)c2ccccc21 [GW441756] (first compound 0.4 µM, partner dose 0.4 µM)",112%
8,"C[C@]12O[C@H](C[C@]1(O)CO)n1c3ccccc3c3c4c(c5c6ccccc6n2c5c31)CNC4=O [Lestaurtinib] + CC(=O)c1c(C)c2cnc(Nc3ccc(N4CCNCC4)cn3)nc2n(C2CCCC2)c1=O [palbociclib] (first compound 0.004 µM, partner dose 0.04 µM)",90.3%
9,"C[C@]12O[C@H](C[C@]1(O)CO)n1c3ccccc3c3c4c(c5c6ccccc6n2c5c31)CNC4=O [Lestaurtinib] + Nc1nc(F)nc2c1ncn2[C@@H]1O[C@H](CO)[C@@H](O)[C@@H]1O [fludarabine] (first compound 0.004 µM, partner dose 0.2 µM)",95.5%
10,"Cn1cc(C2=C(c3cn(C4CCN(Cc5ccccn5)CC4)c4ccccc34)C(=O)NC2=O)c2ccccc21 [Enzastaurin] + C[C@]12O[C@H](C[C@]1(O)CO)n1c3ccccc3c3c4c(c5c6ccccc6n2c5c31)CNC4=O [Lestaurtinib] (first compound 0.8 µM, partner dose 0.004 µM)",106%
11,"C[C@]12O[C@H](C[C@]1(O)CO)n1c3ccccc3c3c4c(c5c6ccccc6n2c5c31)CNC4=O [Lestaurtinib] + CS(=O)(=O)CCNCc1ccc(-c2ccc3ncnc(Nc4ccc(OCc5cccc(F)c5)c(Cl)c4)c3c2)o1 [lapatinib] (first compound 0.004 µM, partner dose 0.8 µM)",101%
12,"C[C@]12O[C@H](C[C@]1(O)CO)n1c3ccccc3c3c4c(c5c6ccccc6n2c5c31)CNC4=O [Lestaurtinib] + Clc1ccc(Nc2nnc(Cc3ccncc3)c3ccccc23)cc1 [vatalanib] (first compound 0.004 µM, partner dose 2 µM)",91.4%
